Measured values published in the supplement of paper PMC3334620.
Whole data set: some 33,000 sequences, median “E-score (-0.5 to 0.5)” near -0.017, cut for the highest 2% near 0.3. The list shows a part of the results.

The sequences below were run against T1, Sut1 (UniProt P53032) (assay: PBM E-score (8-mer binding enrichment) (E-score (-0.5 to 0.5)); higher = stronger / more preferred TF binding; most listed sequences are background and not binding sites). Conditions: protein concentration: 200 nM; construct: GST-full length.
T1 sequence: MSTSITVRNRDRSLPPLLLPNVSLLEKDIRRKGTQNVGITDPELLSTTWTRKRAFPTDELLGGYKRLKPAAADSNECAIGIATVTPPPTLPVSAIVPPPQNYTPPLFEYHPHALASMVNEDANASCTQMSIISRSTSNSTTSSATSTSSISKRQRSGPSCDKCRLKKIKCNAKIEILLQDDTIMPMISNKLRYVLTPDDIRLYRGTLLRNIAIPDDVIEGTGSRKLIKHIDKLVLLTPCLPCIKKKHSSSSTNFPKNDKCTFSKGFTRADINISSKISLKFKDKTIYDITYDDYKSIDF
Procedure, shortened: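 GST-tagged yeast TFs (full-length or DNA-binding domain) were made by PURExpress in vitro transcription/translation and applied at about 100-200 nM to universal all-10-mer Agilent arrays. The arrays were made double-stranded by primer extension, on fresh or once-stripped slides. Bound protein was detected with fluorescent anti-GST, and scans were normalised with masliner. Each ungapped eight-base word, pooled with its reverse complement, received an E-score (modified Wilcoxon-Mann-Whitney statistic) from the Universal PBM Analysis Suite.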

Sequence	PBM E-score
AGTCGTAC	-0.0438
ATCCTCGG	0.157
AGAATAGC	0.0785
TGGAGCAA	-0.0175
ACGAGGGG	-0.289
GCGTTGAC	-0.146
CCCAATAA	0.0503
ACTGCGGG	-0.0769
ATCAGACG	-0.174
GCAGGTTA	-0.0255
AAATGACT	0.0507
TACTGCTA	-0.0311
AGGGCCCT	-0.282
AAACACAT	0.0664
ATCTGCTC	-0.0661
CCTCAAAC	-0.0345
CCACCCCG	-0.0489
AATGTCTC	0.0524
ATTCTAAG	0.118
CCCTCCCC	-0.157
AACAATGA	0.122
CTAGCTCC	0.15
AGGTCCGA	0.457
ACTCTTCT	-0.0622
GAAGAGGA	-0.143

Sequence	PBM E-score
CCCGCGCC	-0.198
AGTAGCCG	0.0748
ACTTCCAG	-0.166
AGAACGTA	-0.0667
AATTAGCG	0.138
TCATTGCA	-0.159
AGAGTAAT	0.228
GAACTCGC	-0.0582
TCTCAACA	0.15
AGGGACAG	-0.31
CAATGCGA	-0.0216
CGCCCAAC	-0.142
ACCGCTGG	-0.219
CCAATGCG	-0.0279
CTGCGGTA	-0.18
ACCATTTA	0.0448
GTTGAAGA	0.161
TTACCTAA	0.152
GGGCGTAC	-0.143
GAATATTA	0.255
AAACCGCC	-0.105
CCCAGCTA	-0.25
GCTCATCC	-0.181
ACGCCCCC	-0.199
CGCACGTA	-0.173

Sequence	PBM E-score
CAGGGATA	-0.208
TTCACAAA	0.156
GACCAAGA	0.0293
CAGACGTA	-0.161
GAGATTGA	0.202
ACCTGGAA	0.109
ATGCCGCA	-0.0794
CATTCCCA	-0.115
AGACGACA	0.0613
ATATCTGA	0.0283
ACCATAAG	-0.0746
ACAATTAA	0.255
CACCAACC	0.0104
ACAGTCAG	-0.0556
CAATCAGA	-0.145
AGAAGCGA	-0.0194
CACACTGG	-0.177
CGTGTCGC	-0.0154
AAACCATA	0.155
GAGCCATA	-0.0499
CCACGCGA	-0.213
AAGAGCAC	0.02
GAGCTAGC	0.00809
AAGATGAG	-0.183
GATAGTGA	0.156

Sequence	PBM E-score
CCAAGGGG	-0.143
CTCGCTAC	-0.0503
ATAACAGG	-0.129
CGTTAACA	-0.0173
CGGGAGTC	-0.11
AATAACGT	0.14
AACACTTA	0.0751
GCGAAAAC	0.00125
CATGGATA	-0.198
AAGGCGAT	-0.0862
CTGGGCGA	-0.296
ATCGCGAA	0.00184
GCCTCACA	0.0414
CGAGTTGC	-0.0494
ATCGACCG	-0.205
CGAGAAGA	0.0504
CGAAATCA	0.213
AAGTAACT	0.156
ACTGTTAT	0.217
ATCTGCAT	-0.0643
ACAAACGA	0.232
CCAGCCGG	0.0891
TCAGTGGA	-0.0596
TCAAAAAA	0.224
TGCACGAA	0.18

Sequence	PBM E-score
AGTGATAG	0.122
ATGAGTGA	0.0605
AGGTAAGC	-0.0241
TCAACCCA	-0.063
CTCGGCTC	-0.0596
CAGAAGTA	0.0312
GCAGCCAA	-0.0277
CATGGGGC	-0.312
CACTGAGG	-0.0713
ATTCTGAC	-0.0784
GCTCTAAC	-0.118
CCAGAATC	-0.0221
CATCATTC	0.0139
TGTAGTAA	0.222
AATTGAAA	0.125
ATGTGAAG	0.0256
GATAATCA	0.107
GTTAGACA	0.193
GTCGAGTA	-0.0477
AACGCGAA	0.0627
AGTGAGTA	0.26
ACGCCGCC	-0.084
CGCCTCAA	-0.0984
AATGCGTG	-0.151
AATCCGGA	0.368

Sequence	PBM E-score
CACTTTTA	0.225
CGTGTGTA	0.0883
ATAACTAT	0.253
TACTAATA	0.181
GGCATGAC	-0.381
CGGTGACG	0.00302
GCGCGCAC	-0.101
CTCATCTC	0.109
CCAGCGGC	-0.131
CTAGTAGC	0.0397
GCCCAGAA	-0.0411
CCTTAGCG	-0.112
ATTGAAGC	0.113
CCAACACA	0.0923
TATTTGAA	0.247
AATCGCAT	0.0231
AAGGTCTA	-0.127
CTTAGACA	-0.276
ACTCATAC	0.0873
ACTACGAG	-0.113
CCTGCTCA	-0.19
CCGCTGAA	0.0915
GCCTTGAC	-0.0825
AAGTAACA	0.0286
AAAAAGGT	0.0915

Sequence	PBM E-score
GGGGTACC	-0.172
CTGGGGAC	-0.282
ACTTGGTA	0.0271
ATACAGTG	0.0667
AGTTATTC	0.201
GTCGTGCA	-0.256
AAAGACTG	-0.0899
AAGCCTTA	-0.0538
CCATACGC	-0.0864
AGTGGTTA	0.094
AGGGTAGG	-0.235
GCGGCGAA	0.13
GGGCTTAA	-0.122
ATTGTAGA	0.167
TAGTAGAA	0.0513
CCTCCACC	-0.0218
CAACTGGC	-0.128
ACGATCAA	0.0406
GCTGACCC	-0.116
GAGATCGA	0.00199
ACGGAGCA	0.207
ACTTTACT	0.128
AAATCGCG	0.0769
GGTAGAGA	-0.113
TCTACTAA	0.159

Sequence	PBM E-score
CAATACCA	0.116
TGCGCGAA	0.168
TCCATCGA	-0.0147
TCGGAAGA	0.142
ATGGGGTA	-0.0156
GATTCGAC	-0.0375
ATGGATCC	0.0993
CGAGGACG	-0.0674
GGGTTGTA	-0.0207
GTACCAAA	0.0249
GGCTCTTA	-0.0869
AACCTCAA	-0.00124
CATATGCG	-0.0808
CGTATTTC	0.232
GTCCGGTA	0.373
ATTTACCG	0.227
CTTAGGCA	-0.18
ACCGTCAC	-0.294
GACATCTC	0.0546
AAGAGGTA	0.124
TATGCGAA	0.131
AACGCTTA	-0.00017
CGTTGTAG	0.165
AGGTATCG	0.0564
CGCTATTA	0.175

Sequence	PBM E-score
CTGGGGTC	-0.224
CATTTGGG	-0.144
AAGTCTAT	-0.0126
CAAAGGAA	0.0795
GAGCCGTA	0.113
GCAATTCA	-0.0115
CGCACGTC	-0.00581
CACCAATA	0.112
AGACTAAT	0.0123
ACCAGATA	0.0404
ACCTGCTC	-0.204
AGCTGGCG	-0.301
CCCCACTC	-0.0828
TAGAGTGA	0.118
CATGTAAC	0.127
ACGCAATC	0.0769
ACGTTCCA	-0.121
AACTAGGT	0.211
CCTGGACG	-0.323
AGCAATTA	0.183
AATGACTG	-0.0497
GGTGAACA	-0.254
AACTGAGG	-0.0963
ATTCCGAC	0.219
AGGTACAA	-0.0388

Sequence	PBM E-score
CGAAGCCA	0.035
AACCACAA	0.175
GCGCCTTA	-0.0601
AAATCTCT	0.123
GTAACTAC	0.159
CGACAGAC	-0.163
CGGAGGCA	0.0908
AACCTGTA	-0.0478
AGTGGACG	0.0924
ACTATTTG	0.252
GACCCCGC	-0.0107
CCCAGGAA	-0.099
CCACCCTC	-0.0597
ATTCGAAT	0.154
GAAGACGA	-0.00534
ACGTTGCA	-0.0425
ATGCCGAA	0.125
CTTGGCTA	-0.0531
AGCTGGAA	-0.22
CTTGACTA	-0.0929
CCGAAACA	0.154
ACACGTCA	-0.15
ATTCCTCA	0.0522
AGTATCAT	0.183
AGTCTTTA	0.0267

Sequence	PBM E-score
ATAGATAG	0.187
ACGCACAT	-0.0517
TACGGGCA	-0.0806
CCAAGACA	0.0382
CTCGCGAC	-0.252
AGACGGCG	-0.0797
CTCATGAC	-0.0703
AACCAGTC	0.173
AGGCGTGG	-0.404
CCAAGCAG	-0.0829
AACTAGCG	-0.0241
AATCTGTG	-0.0439
GGATCTAA	0.0238
CGCTTACG	-0.171
ATTACGTG	-0.0252
ACACTCCA	0.0327
GAGGGATA	-0.264
CTAACCCC	-0.102
GGATCGTA	0.0665
GTCGGCTA	-0.0144
CTATCAGC	-0.0428
CCATTGAA	0.167
AATAGTAG	0.173
CGCAATTA	0.142
GTTTGATA	0.241

Sequence	PBM E-score
GTCATACA	0.226
AAAGTACG	0.0791
ACAAAGCT	-0.027
AGTGCATG	-0.0963
ATATCGCC	0.0593
GCCTTCAA	-0.0191
ACTTTCAC	0.231
CAACCGTC	-0.283
AACACACT	0.0242
CCTAGCGC	-0.127
ATTATACC	0.149
CTCTAGTC	-0.147
TGACCCAA	-0.152
ATATTGCA	0.0739
TAGCCAAA	0.137
AAACTGGC	-0.0885
ATCAGAAC	-0.0461
CCTTGCGA	-0.13
AGGGGGTA	-0.323
AGCTGGCA	-0.241
AGTCGGAG	0.316
GGCACGTA	-0.146
ATACGGGG	-0.0377
CTTTCGAC	0.0381
GCAACGGC	-0.0987

Sequence	PBM E-score
GCCACTAC	-0.00549
AGCCCTGG	-0.299
GGCCCTCA	-0.279
ACGCATAA	0.0185
ACACATTA	0.00791
CACGCACC	-0.17
ACTAGGCT	-0.0538
ACCAGTAC	-0.139
CCTTCTAG	-0.0796
CTGTCTGC	-0.331
AGGCTAGA	-0.0922
CGACCCCA	-0.275
CTCAACCA	-0.0246
ACGGTTGG	-0.112
CTCATCAA	0.179
ATGATCTA	0.0838
CGATAGCA	-0.245
ATTCGCTA	0.0525
AAACCGTA	0.083
AATCATCC	0.0734
CATACGGC	-0.156
GATATAGA	0.136
AGGGCGCC	-0.353
CAGGCTTA	0.0613
TAAACCTA	0.0849

Sequence	PBM E-score
TCCGTAGA	0.361
ACGGTAGG	-0.172
AGGTCACT	-0.208
AGCGAACC	0.0689
CTGGGTAC	-0.2
AGTGGAAC	-0.107
CCCAGCGG	-0.215
ATTGGGCC	-0.00173
CGGCATTA	0.0544
GCCTTCCC	-0.0894
TCGTACGA	-0.0725
GCATGGCC	-0.178
AACCACGG	0.0519
ATATAATC	0.156
CTGGGGGA	-0.273
CAATGGGG	-0.163
CGAACACC	-0.214
CATAGTTC	0.0676
AGGAGGAC	-0.242
